Test results taken from PubChem BioAssay AID743262 (National Center for Advancing Translational Sciences (NCATS), 2014).
Hit rate of the full screen: of about 1,300 compounds, about 25 (2%) were called active. Not shown: some 9% with an inconclusive outcome. Calls follow the shape of the dose curve; as a rule, active = well fitted activation curve with a large enough effect; inconclusive = small, poorly fitted or top-dose-only effect; inactive = flat fitted curve, though single readings scatter. This is one part of the list.

Biological target: Glucagon-like peptide 1 receptor (Homo sapiens) (UniProt P43220)
Experiment: qHTS of GLP-1 Receptor Agonists: Hit Validation; also: % of control where 0% means no effect
Details: HEK293 GLP-1R, cAMP-response luciferase, 4-6 h; series mostly up to 46.1 µM; activation: at the top concentration
Method in brief: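 HEK293 cells stably co-expressing a cAMP-responsive luciferase reporter and GLP-1R (hypersensitive receptor for weak agonists; wild-type line for confirmation) were plated 12 h at 37 °C, exposed to compound 4-6 h, then read by luminescence after 12 min detection reagent.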

Sequence of UniProt P43220 (P43220 whole entry, looked up): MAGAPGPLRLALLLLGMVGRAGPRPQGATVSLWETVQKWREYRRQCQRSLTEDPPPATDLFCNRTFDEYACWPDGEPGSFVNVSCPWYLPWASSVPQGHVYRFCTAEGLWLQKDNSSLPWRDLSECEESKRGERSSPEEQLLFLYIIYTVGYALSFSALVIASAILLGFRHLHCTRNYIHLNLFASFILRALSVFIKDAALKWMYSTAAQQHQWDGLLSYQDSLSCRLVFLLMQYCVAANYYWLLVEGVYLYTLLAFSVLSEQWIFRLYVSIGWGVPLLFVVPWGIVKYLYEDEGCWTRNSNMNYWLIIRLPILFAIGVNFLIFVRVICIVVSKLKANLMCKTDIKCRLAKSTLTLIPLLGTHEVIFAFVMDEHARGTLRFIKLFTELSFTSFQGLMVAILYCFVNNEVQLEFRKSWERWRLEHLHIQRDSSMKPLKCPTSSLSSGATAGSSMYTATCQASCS

Row | SMILES | activation
1 | O=C1NC(=Nc2ccccc2Cl)S/C1=C\c1cccc([N+](=O)[O-])c1 | inactive: 5.05%
2 | CCOC(=O)c1c(C)nc2ccccn12 | inactive: 1.88%
3 | CCn1c(SCc2nc3ccccc3c(=O)[nH]2)nc2ccccc2c1=O | inactive: 3.05%
4 | COc1c(S(=O)(=O)N2CCCC2)ccc(Cl)c1Cl | inactive: 7.06%
5 | CCCCCCSc1cccc(-c2nc3ccc(Cl)cn3c2NCCCC)c1 | inactive: -0.444%
6 | CCc1ccc(CNC(=O)C2CCC(=O)N2C2CCCCC2)cc1 (configuration not stated) | inactive: -0.908%
7 | COc1ccc(CCN(C)C/C=C/c2ccccc2[N+](=O)[O-])cc1OC | inactive: 4.02%
8 | CC(C)Cn1cnc2c(SCc3ccccc3F)nc(N)nc21 | inactive: 5.83%
9 | O=C(CCN1C(=O)/C(=C\c2ccccc2)SC1=S)N1CCCCC1 | inactive: -1.3%
10 | COc1cc2[nH]cc(C(=O)NCCc3ccccc3)c(=O)c2cc1OC | inactive: 5.56%
11 | COc1ccc(CCNC(=O)CCn2c(=O)oc3ccccc32)cc1OC | inactive: 0.807%
12 | COc1ccc(-c2cc(N3C(=O)Nc4ccccc4N3O)n[nH]2)cc1 | inactive: -1.22%
13 | COc1ccc(-c2csc(Nc3ncccc3C)n2)cc1OC | inactive: 18.5%
14 | Cc1cc(C)nc(N2CCCC(C(=O)Nc3ccc4nc(C)c(C)nc4c3)C2)n1 (configuration not stated) | inactive: 2.27%
15 | O=C(CCNc1ccc(F)cc1)c1cc2ccccc2o1 | inactive: -0.528%
16 | CN1CCN(c2nc(-c3cccc([N+](=O)[O-])c3)nc3ccccc23)CC1 | inactive: 15.3%

Row | SMILES | activation
17 | CCOC(=O)COc1ccc2c(=O)cc(-c3ccccc3)oc2c1 | inactive: 2.29%
18 | CCC(C(=O)NC1CCCC1)N(Cc1cccs1)C(=O)Cn1nnc(-c2ccc(OC)c(OC)c2)n1 (configuration not stated) | inactive: 2.93%
19 | COc1ccc(CN(C)CC(=O)Nc2cccc3ccccc23)cc1F | inactive: 5.83%
20 | COc1nc(Nc2ccc(OC)c(Cl)c2)nc(OC)n1 | inactive: 3.68%
21 | COc1cc2c(cc1OC)CN(C(=O)Cc1ccccc1)CC2 | inactive: 1.65%
22 | Cc1nn(CCC(=O)O)c2nc(-c3cccnc3)cc(C(F)(F)F)c12 | inactive: 0.27%
23 | CN(C)NC(=O)c1ccsc1NC(=O)c1ccc(S(=O)(=O)N(C)C)cc1 | inactive: 0.0754%
24 | COc1ccccc1/C=N/Nc1nc(C)cc(C)n1 | inactive: -0.146%
25 | CCN1CCN(C(c2cccnc2)c2cc(Cl)c3cccnc3c2O)CC1 (configuration not stated) | inactive: 13.2%
26 | N=C1C(c2ccccc2)=C(O)CN1NC(=O)c1ccccc1 | inactive: -0.663%
27 | COc1ccc(C(=O)N2CCc3cc(OC)c(OC)cc3C2c2ccc(OC)c(OC)c2)cc1 (configuration not stated) | inactive: 11.9%
28 | COc1ccc(/C=C2/N=C3CCCCCN3C2=O)cc1OC | inactive: 7.1%
29 | CCOc1ccc(C(=O)c2nc3c(n2O)CCCC3)cc1 | inactive: -0.793%
30 | COCCNc1nc(CSc2ccccc2)nc2sc(C)c(C)c12 | inactive: 9.75%
31 | C/C(=N\NC(=O)C1CCCC1)c1ccc(C(C)C)cc1 | inactive: 4.5%
32 | CC1CN(c2nc(Nc3ccccc3F)nc(N)c2[N+](=O)[O-])CC(C)O1 (configuration not stated) | inactive: 4.01%
